# Source: PubChem BioAssay AID938 (National Center for Advancing Translational Sciences (NCATS), 2007)
# Screen size: about 73,000 compounds; about 1,800 (2.5%) were called active. Inconclusive results, whose numbers are uncertain, are shown with a selection of clear calls. The call rests on the fitted dose curve; in most records, active means well fitted activation curve with a large enough effect; inconclusive means small, poorly fitted or top-dose-only effect; inactive means no such curve, though single readings can be large or run the other way. Potencies of inconclusive entries are left out as doubtful fits.
# Test: qHTS Assay for Agonists of the Thyroid Stimulating Hormone Receptor: Activators of Intracellular cAMP Concentrations in Parental HEK 293; further: nearly all actives have a fitted effect of over 55% in size; on activation: % of control where 0% means no effect
# Conditions: parental HEK293 CNG cAMP sensor, membrane potential fluorescence; activation: at 57.1 µM (top of the series) unless noted
# How it was run: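 Parental HEK 293 cells stably expressing a modified CNG channel (no TSHR) report cAMP rise as membrane depolarization. Membrane potential dye with 100 uM RO 20-1724 was loaded for 60 min at room temperature, then compound added for 30 min; fluorescence read at 590 nm.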
# Potency means the concentration at half of the fitted maximal effect; tags describe the fitted curve by direction and shape.
Structure (SMILES),activation,Potency
O=C(NCCN1CCOCC1)c1cccs1,inactive: -1.05%,–
CCN(c1ccccc1)c1nc2ccsc2c(=O)s1,–,"inconclusive [activator, single point]"
CC(=O)[C@]1(O)CC[C@@H]2[C@H]3C[C@@H](C)C4=CC(=O)CC[C@@]4(C)[C@H]3[C@@H](O)C[C@]21C,–,"inconclusive [activator, single point]"
CCCCNCCOCCOc1ccc(F)cc1,–,"inconclusive [activator, single point]"
CCOC(=O)C1CCN(C(C(=O)Nc2ccc3c(c2)OCCO3)c2ccccc2)CC1 (stereo not given),–,active: 12.6 µM
O=C(Nc1ccon1)C(Sc1ccccc1)c1ccccc1 (stereo not given),–,"inconclusive [activator, partial curve]"
CC(=O)Nc1ccc(S(=O)(=O)N2CCC(n3cnc4cc(F)ccc43)CC2)cc1,–,"inconclusive [activator, single point]"
COc1ccc2c(C)cc(SCC#N)nc2c1,–,active: 31.6 µM
O=C(C1COc2ccccc2O1)N1CCN(Cc2ccc3c(c2)OCO3)CC1 (stereo not given),–,"inconclusive [activator, partial curve]"
CCC/C=C(\CCC)C(NC(=O)Cc1ccccc1)c1ccc(C(=O)OC)cc1 (stereo not given),–,active: 15.8 µM
CCOc1cc(-c2c(C)c(C)nc(N)c2C#N)ccc1O,inactive: 23.5%,–
CCCCCCn1c(CN2CCN(Cc3ccccc3)CC2)nc2c1c(=O)n(C)c(=O)n2C,–,"inconclusive [activator, partial curve]"
O=C(CN(Cc1ccc(F)cc1)C(=O)c1ccco1)NCc1ccc(F)cc1,–,"inconclusive [activator, partial curve]"
Cn1c(=O)c2c(SCC(=O)N3CCCc4ccccc43)nc(C3CC3)nc2n(C)c1=O,–,"inconclusive [activator, single point]"
O=C(O)[C@H]1CCc2ccc3ccccc3c2[C@H]1c1cccc2ccccc12,inactive: 16.9% [at 11.4 µM],–
CC(C)c1ccc(-c2nnn(CCC(=O)O)n2)cc1,inactive: 21.5%,–
CC(C)=CCCC(C)N(C=O)C(C)CCC=C(C)C (stereo not given),–,"inconclusive [activator, full curve]"
CCNc1nc(SC(C)C(=O)Nc2ccccc2)nc(N2CCOCC2)n1 (stereo not given),inactive: 11.6%,–
CCCn1c(C)nc2c(N3CCOCC3)nc(C)nc21,inactive: 10.2%,–
CC(=O)OC[C@@H]1O[C@H](C/C=N\O[C@@H](C)CN2CCCCc3nc(C)c(C)cc32)C=C[C@@H]1OC(C)=O,–,"inconclusive [activator, single point]"
COCCN(CCOC)C(=O)c1cc2sc3ccccc3c2s1,–,"inconclusive [activator, single point]"
O=C(O)Cc1cccnc1,inactive: 1.29% [at 11.4 µM],–
O=C1c2ccccc2C(Cc2ccncc2)(Cc2ccncc2)c2ccccc21,–,active: 3.16 µM
CSc1nc2ccc(Nc3nc(N4CCOCC4)nc(N4CCOCC4)n3)cc2s1,inactive: 0.519% [at 11.4 µM],–

Structure (SMILES),activation,Potency
Cc1ccc(OCc2nc(C#N)c(NCc3ccc4c(c3)OCO4)o2)cc1,–,active: 15.8 µM
COc1cccc2c(C)c(C(=O)O)[nH]c12,–,"inconclusive [activator, partial curve]"
Cc1ccc(-c2nc(CSCC(=O)N3CCN(c4ccccn4)CC3)c(C)o2)cc1,–,"inconclusive [activator, partial curve]"
Cc1cc2nc(C3CCN(CC4COc5ccccc5O4)CC3)[nH]c2cc1C (stereo not given),–,"inconclusive [activator, full curve, poor fit]"
Cc1cc(C)n(-c2ncnc3sc4c(c23)CC(C)CC4)n1 (stereo not given),–,"inconclusive [activator, partial curve]"
O=C(NCc1ccco1)c1cc(-c2ccncc2)nc2ccccc12,–,"inconclusive [activator, single point]"
CCN(CC)S(=O)(=O)c1cccc(-c2nnc(SC(C)C#N)n2Cc2ccccc2)c1 (stereo not given),–,active: 25.1 µM
COc1ccc(C(=O)n2c(-c3ccco3)nc3ccccc32)cc1,–,active: 25.1 µM
O=C(c1ccncc1)N1CCC[C@@]2(CCN(C(c3ccccc3)c3ccccc3)C2)C1,–,active: 3.98 µM
CC(C)(C)c1cc(Br)c(O)c(CN(Cc2cc(C(C)(C)C)cc(Br)c2O)C2CCCCC2)c1,–,"inconclusive [activator, partial curve, poor fit]"
COc1ccc(CC(NC(C)=O)C(=O)NC2CCN(c3nnnn3-c3ccccc3)CC2)cc1 (stereo not given),–,"inconclusive [activator, single point]"
CC(=O)NC(C)C12CC3CC(CC(CC(=O)O)(C3)C1)C2 (stereo not given),–,"inconclusive [activator, partial curve]"
Cc1ccc(N2CC(C(=O)N3CCCc4ccccc43)CC2=O)cc1 (stereo not given),–,"inconclusive [activator, single point]"
COC(=O)c1sccc1NC(=O)c1ccc(Cl)s1,–,"inconclusive [activator, single point]"
O=S(=O)(Cc1ccccc1)N1CCCC(c2nc(-c3ccc(F)cc3)no2)C1 (stereo not given),–,"inconclusive [activator, single point]"
COc1cccc(OC)c1C(=O)Nn1c(C2CCC2)nc2ccccc2c1=O,–,active: 25.1 µM
COc1ccccc1N1CCN(CC(=O)Nc2cc(F)ccc2C)CC1,–,"inconclusive [activator, single point]"
O=C(C1CCCN1S(=O)(=O)c1ccc(Cl)c(Cl)c1)N1CCCCC1 (stereo not given),–,"inconclusive [activator, single point]"
O=C(Nc1cccc2c1CCCC2)C1CCN(c2nnnn2-c2ccccc2)CC1,–,"inconclusive [activator, single point]"
Cn1cc(S(=O)(=O)N2CCN(c3cccc(C(F)(F)F)c3)CC2)c(=O)n(C)c1=O,–,"inconclusive [activator, single point]"
CCOC(=O)c1nc2sc3c(c2c(=O)[nH]1)CCCC3,–,"inconclusive [activator, single point]"
CCC(Sc1ccc2nnc(-c3ccc(F)cc3)n2n1)C(=O)OC (stereo not given),–,"inconclusive [activator, partial curve]"
C=CCn1c2ccccc2c2nnc(SCCCn3c(=O)[nH]c4ccccc43)nc21,–,"inconclusive [activator, partial curve]"
Cc1cccc(S(=O)(=O)C(C#N)c2nc3ccccc3nc2N2CC(C)OC(C)C2)c1 (stereo not given),inactive: -1.33%,–

Structure (SMILES),activation,Potency
COC(=O)c1ccc(C(NC(=O)OCc2ccccc2)/C(F)=C/[C@@H](C)C(=O)NCc2nc3ccccc3s2)cc1 (stereo not given in full),inactive: 2.42%,–
CCOC(=O)N1CCN(CC(=O)Nc2cc(C)nn2-c2nc3ccccc3s2)CC1,–,"inconclusive [activator, partial curve, poor fit]"
CC(C)COC(=O)c1ccc(NC(=O)C2C3C=CC(C3)C2C(=O)O)cc1 (stereo not given),–,"inconclusive [activator, single point]"
O=C(Oc1ccc(-c2nnco2)cc1)N(c1ccccc1)c1ccccc1,–,"inconclusive [activator, single point]"
Cn1c(C(=O)NC2CC2)cc2c(=O)n(C)c3ccccc3c21,–,"inconclusive [activator, single point]"
c1cncc(-c2ccc3ncnc(NCCN4CCOCC4)c3c2)c1,inactive: -5.25%,–
COc1cccc(C(=O)Nc2c(C(N)=O)oc3ccccc23)c1,–,"inconclusive [activator, single point]"
O=C(O)CCCC(=O)N(Cc1ccccc1)Cc1ccccc1,inactive: 17.3% [at 11.4 µM],–
COC(=O)c1cc2occc2n1Cc1c(F)cccc1Cl,–,"inconclusive [activator, partial curve]"
Cc1cc(C(=O)CSc2nnc(Nc3ccccc3F)s2)c(C)n1CC1CCCO1 (stereo not given),–,"inconclusive [activator, single point]"
CCOC(=O)c1c(NC(=O)CSc2nnc(-c3ccc(OC)cc3)o2)sc2c1CCC2,–,"inconclusive [activator, partial curve]"
Cc1cc(C(=O)COC(=O)CCC(=O)c2ccc3c(c2)OCCO3)c(C)n1Cc1ccco1,inactive: 23.4%,–
N[C@@H](CNO)C(=O)O,inactive: 2.76% [at 11.4 µM],–
CCOC(=O)CSc1nc2ccccc2c(=O)n1CC1COc2ccccc2O1 (stereo not given),–,"inconclusive [activator, partial curve]"
COCCNc1ncncc1-c1c(C)noc1C,–,"inconclusive [activator, single point]"
CCCOc1ccc(C(=O)C(c2ccccc2)N2CCOCC2)cc1 (stereo not given),–,active: 25.1 µM
Cc1cc(C(=O)O)c(CCCN)s1,–,"inconclusive [activator, single point]"
Oc1ccc(O)c2c(O)cccc12,–,"inconclusive [activator, single point]"
Nc1nonc1-c1nc2ccccc2n1CC(=O)N1CCCCC1,–,"inconclusive [activator, partial curve]"
CCCN=Cc1sc2ccc(OCC)cc2c1O,inactive: 4.35%,–
O=C1c2ccccc2C(=O)N1CCCCSc1nnnn1-c1ccccc1,–,"inconclusive [activator, partial curve]"
C[C@@H]1C=CCC(=O)OC[C@H](C)C(=O)OC[C@H]2O[C@H]1C=C[C@@H]2O,inactive: 4.49% [at 11.4 µM],–
